The campaign covered roughly 420,000 compounds. About 64,000 (15%) were called active. Inconclusive results, whose numbers are uncertain, are shown with a selection of clear calls. The call rests on the fitted dose curve; in most records, active means well fitted inhibition curve with a large enough effect; inconclusive means small, poorly fitted or top-dose-only effect; inactive means flat fitted curve, though single readings scatter. No potency is given beside an inconclusive call; the fits are too rough.
Test: qHTS for Inhibitors of human tyrosyl-DNA phosphodiesterase 1 (TDP1): qHTS in cells in absence of CPT; further: nearly all actives have a fitted effect of over 55% in size
Details: DT40 Tdp1-/- hTDP1 cells, no CPT, ATP luminescence, 48 h; activity change, negative = growth inhibition: at 46.2 µM (top of the series) unless noted
Method in brief: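 Cells were dispensed at 400 per well, compounds added by pin tool, plates incubated ≥48 hr at 37 °C, then CellTiter-Glo added for 30 min at room temperature before luminescence reading. Line: DT40 Tdp1-/- complemented with hTDP1; camptothecin omitted.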
On the % scale 0 is the no-effect control and ±100 the full control effect; potency means the concentration at half of the fitted maximal effect; tags describe the fitted curve by direction and shape.

Row | Structure (SMILES) | activity change, negative = growth inhibition | Potency
1 | COc1ccccc1N1CC(C(=O)OC(C)C(=O)Nc2ccc(F)cc2)CC1=O (stereo not given) | inactive: 5.21% | 
2 | COc1ccc2[nH]c(C)c(C(=O)CN(C)C)c2c1 |  | inconclusive [inhibitor, partial curve, poor fit]
3 | COC(=O)c1sc(N2C(=O)c3oc4ccc(F)cc4c(=O)c3C2c2ccc(C)cc2)nc1C (stereo not given) |  | inconclusive [inhibitor, full curve, poor fit]
4 | C[C@@H]1[C@H](c2ccccc2)OCCS(=O)(=O)N1Cc1ccccc1Br |  | inconclusive [inhibitor, full curve, poor fit]
5 | COc1cc(NC(=O)c2ccc(-c3cnn(C)c3)c3ccoc23)cc(OC)c1OC |  | inconclusive [inhibitor, partial curve]
6 | N#Cc1ccccc1S(=O)(=O)N1CCN(S(=O)(=O)c2ccc(Br)c(C(=O)O)c2)CC1 | inactive: -3.33% | 
7 | COc1ccc(CN(C)C[C@H]2Oc3c(NC(=O)Nc4ccccc4)cccc3C(=O)N([C@H](C)CO)C[C@@H]2C)cc1 |  | active: 29.1 µM
8 | O=C(COC(=O)Cc1c[nH]c2ccccc12)Nc1cccc(Br)c1 |  | inconclusive [inhibitor, single point]
9 | Cc1cc(C(=O)Nc2ccc3c(c2)CCC3)c2ccccc2n1 |  | inconclusive [inhibitor, single point]
10 | O=C(NCCc1ccccc1)c1ccc2nccnc2c1 | inactive: -22.6% | 
11 | CCOC(=O)CN1C(=O)C(=O)N(Cc2cccc(C)c2)C1=O | inactive: -1.66% | 
12 | COc1ccc2c(c1)C(C)=CC(C)(C)N2S(=O)(=O)c1ccc(NC(C)=O)cc1 |  | active: 2.31 µM
13 | Nc1ccc(C2=Nc3cccc4cccc(c34)N2)cc1 |  | inconclusive [inhibitor, single point]
14 | CCN(CC(=O)NC(C)C)Cc1nc2sc3c(c2c(=O)[nH]1)CCC3 |  | active: 4.61 µM
15 | Cc1ccc(OC(=O)CCC(=O)Nc2ccc(C)c(C)c2)cc1 | inactive: -0.176% | 
16 | CCn1c(COc2ccccc2C)nnc1SCC(=O)CC(=O)Nc1ccccc1 | inconclusive: -31% [inhibitor] | 
17 | O=C(Cc1ccccc1)N(Cc1cccnc1)c1nc2ccc(Cl)cc2s1 | inactive: -20.9% | 
18 | CC(C)NC(=O)N1CCC2(CC1)CCN(C(=O)c1cnccn1)CC2 | inactive: -2.39% | 
19 | CC(=O)c1cccc(NC(=O)CSc2nnc3ccc(-c4ccc(F)cc4)nn23)c1 | inactive: -9.32% | 
20 | CC(C)=C[C@H]1C[C@H](C)[C@H]2CC[C@H](C)c3c(O[C@@H]4OC[C@@H](O)[C@H](O)C4O)c(O)c(C)c1c32 (stereo not given in full) |  | inconclusive [inhibitor, single point]
21 | CCCC(OC(=O)CC1Sc2ccccc2NC1=O)C(=O)NCc1ccco1 (stereo not given) |  | inconclusive [inhibitor, single point]
22 | CSCC[C@H]1COC[C@@H](Cc2ccccc2)N1c1ccccc1 | inactive: -27% | 
23 | O=C(Nc1cc(S(=O)(=O)N2CCCCC2)ccc1O)c1ccccc1NS(=O)(=O)c1ccc(F)c(F)c1 | inconclusive: -34.6% [inhibitor] | 
24 | COc1cc(C(=S)N2CCCC2)ccc1OCc1ccc(C)cc1 |  | inconclusive [inhibitor, single point]
25 | CC(C)(C)c1ccc(/C=C2\SC(=O)N=C2N)cc1 |  | inconclusive [inhibitor, single point]

Row | Structure (SMILES) | activity change, negative = growth inhibition | Potency
26 | COc1ccc(Cc2nnc(SCC(=O)NC3CCCC3)o2)cc1 | inactive: -3.85% | 
27 | CCN1CCN(Cc2ccc(NC(=O)c3ccc(C)c(NC(=O)c4csc(-c5ccncc5)n4)c3)cc2C(F)(F)F)CC1 |  | active: 23.1 µM
28 | Cn1nc(C(=O)NCCOc2ccccc2)c2ccccc2c1=O |  | inconclusive [inhibitor, partial curve]
29 | COc1ccc(-c2cn(-c3ccccc3)nc2CO)cc1 | inactive: -22.4% | 
30 | Cc1ccc(S(=O)(=O)NNC(=O)C(O)(c2ccccc2C)c2ccccc2C)cc1 | inconclusive: -31.7% [inhibitor] | 
31 | Cc1c(C(=O)/C=C/c2cccs2)oc2ccc(F)cc12 |  | inconclusive [inhibitor, single point]
32 | N#Cc1ccccc1-c1ccc2ncnc(N3CCNCC3)c2c1 | inactive: -0.393% | 
33 | CCOc1ccc(N(CC(=O)Nc2cccc(C)c2)S(C)(=O)=O)cc1 |  | inconclusive [inhibitor, single point]
34 | O=c1c2c(-c3ccccc3)csc2ncn1/N=C/c1c2ccccc2cc2ccccc12 |  | active: 16.4 µM
35 | CCc1ccc2c(c1)C(c1ccncc1)=NNC(c1ccccc1)=N2 |  | inconclusive [inhibitor, single point]
36 | CCOC(=O)C1=C(C)OC(N)=C(C#N)C1c1cc2cc(C)ccc2nc1N1CCCCC1 (stereo not given) |  | inconclusive [inhibitor, partial curve]
37 | O=C(Nc1ccc(Br)cc1F)c1cc(S(=O)(=O)NC2CCCC2)ccc1F |  | active: 16.4 µM
38 | CCOC(=O)c1cccc(-n2nnc3c(sc4nc(C)c(Br)c(C)c43)c2=O)c1 | inactive: -5.49% | 
39 | COc1ccc(CC(=O)NCc2ccc3c(c2)cc(C)n3C)cc1OC |  | active: 14.6 µM
40 | O=C(CSc1nc2ccccc2c(=O)n1Cc1ccc(F)cc1)NCC1CCCO1 (stereo not given) |  | inconclusive [inhibitor, single point]
41 | CCN(CC)C(=O)C1CCCN(Cc2nc(-c3cccs3)no2)C1 (stereo not given) | inactive: -25.6% | 
42 | Cc1nc(NCc2ccccc2)c(C(N)=O)c2c1COC(C)(C)C2 | inactive: -11.4% | 
43 | O=c1cc(CSc2nc(NCc3ccc(Cl)cc3)c3ccccc3n2)nc2ccc(Cl)cn12 | inactive: -13.2% | 
44 | O=C(Nc1cccc(O)c1)c1cc(-c2ccc3c(c2)OCO3)on1 |  | inconclusive [inhibitor, single point]
45 | CCOC(=O)c1c(C)oc2ncnc(N3CCN(c4ccc(C)cc4C)CC3)c12 |  | active: 23.1 µM
46 | COc1ccccc1N1CCN(C(=O)c2c(-c3c(Cl)cccc3Cl)noc2C)CC1 |  | active: 20.6 µM
47 | Cc1ccc(CN2CCN(CCCn3cnc4c(OCc5ccccc5)ncnc43)CC2)cc1 |  | inconclusive [inhibitor, partial curve, poor fit]
48 | Cc1ccc(NC(=O)COc2cccc(-n3cnnn3)c2)cc1S(=O)(=O)N1CCOCC1 |  | active: 23.1 µM
49 | C=C(C)Cn1c2ccc(NC(=O)NCCc3cccs3)cc2c(=O)n1C |  | inconclusive [inhibitor, single point]
50 | O=C(CCN1CCN(Cc2ccccc2)CC1)NNC(=O)Cc1ccc(Cl)c(Cl)c1 |  | inconclusive [inhibitor, partial curve, poor fit]

Row | Structure (SMILES) | activity change, negative = growth inhibition | Potency
51 | CCN(CC)S(=O)(=O)c1ccc(OC)c(NC(=O)CSCc2c(C)noc2C)c1 |  | active: 23.1 µM
52 | Cc1ccc(-n2nc3c(c2NC(=O)c2ccco2)CS(=O)C3)cc1 (stereo not given) | inactive: -37% | 
53 | CNc1cncc(-c2ccc(S(C)(=O)=O)cc2)n1 | inactive: -17.9% | 
54 | c1cncc(-c2nnc3n2N=C(c2cccs2)CS3)c1 |  | inconclusive [inhibitor, partial curve, poor fit]
55 | CCC(C)(C)n1nnnc1C(c1ccc2ncccc2c1)N1CCCCCC1 (stereo not given) |  | inconclusive [inhibitor, single point]
56 | C[C@@H]1CN([C@@H](C)CO)C(=O)CCCn2cc(nn2)CO[C@H]1CN(C)S(=O)(=O)c1ccccc1 | inconclusive: -28.8% [inhibitor] | 
57 | COc1cc(OC)nc(Oc2ccccc2C(=O)Oc2ccc(Cl)cc2)n1 |  | active: 16.4 µM
58 | O=C(/C=C/c1ccccc1)NC(=S)NNC(=O)Cc1cccs1 |  | active: 18.4 µM
59 | CCOC(=O)[C@@H]1[C@H]2COc3cc(OC)ccc3[C@@H]2N2C(=O)N(c3ccc(F)cc3)C(=O)[C@@]12C | inactive: -20.6% | 
60 | COc1cc(/C=C/C(=O)OCC(=O)Nc2ccc(Cl)cn2)ccc1O | inactive: -22.3% | 
61 | Cc1ccc(C(C)C)c(OCC(=O)NN2C(=O)c3ccccc3C2=O)c1 | inconclusive: -18.5% [inhibitor] | 
62 | O=C(COC(=O)/C=C/c1ccccc1)NC1CCCCC1 | inactive: -4.48% | 
63 | CCCCN(Cc1cccs1)S(=O)(=O)c1cc(-c2cc(C)no2)ccc1C |  | inconclusive [inhibitor, single point]
64 | C=CCN1C(=O)CS/C1=N\N=C\c1cccc([N+](=O)[O-])c1 | inactive: -3.05% | 
65 | CCSc1ncc(/C=N/Nc2ccc([N+](=O)[O-])cc2)n1C | inactive: -28.1% | 
66 | COCc1c(C(=O)N2CCN(c3ccccc3C)CC2)oc2ccccc12 |  | inconclusive [inhibitor, single point]
67 | CC(C)(C)NC(=O)c1nc2nc(-c3ccccc3)cc(C(F)(F)F)n2n1 | inactive: 6.99% | 
68 | O=C(Cn1cc(CCO)nn1)N1CCNCC1 | inactive: -5.39% | 
69 | Cc1ccccc1Cc1c(C)nc2nc(SCC(=O)NCCCN3CCCCC3)nn2c1C | inactive: -18.1% | 
70 | Cc1cc(N/N=C/c2ccc(O)cc2)nc(NS(=O)(=O)c2ccccc2)n1 |  | inconclusive [inhibitor, partial curve, poor fit]
71 | O=C(NCc1ccc2c(c1)OCO2)c1ccc(CS(=O)(=O)c2ccc(Br)cc2)o1 |  | inconclusive [inhibitor, single point]
72 | CCn1cc(S(=O)(=O)c2ccc(OC)cc2)c(=O)c2cc(OC)ccc21 | inactive: 7.2% | 
73 | CC(C)c1ccccc1NC(=S)NC(=O)C1CCCCC1 |  | inconclusive [inhibitor, single point]
74 | Cc1cccc(N(CC(N)=O)C2SC(=O)N(c3ccccc3)C2=O)c1 (stereo not given) |  | inconclusive [inhibitor, single point]
75 | CCCCCCCC(=O)N1CCN(c2cc3c(cc2F)c(=O)c(C(=O)O)cn3CC)CC1 |  | inconclusive [inhibitor, single point]

Reference: PubChem BioAssay AID686978 (National Center for Advancing Translational Sciences (NCATS), 2013)
